Results from PubChem BioAssay AID588689 (Southern Research Specialized Biocontainment Screening …, 2011).
Several values for one entry are separate records, joined by “and”; a condition that tells them apart may be missing. Equal values may be shown once. Among all 340,000 compounds or so, about 1,000 (0.29%) were called active. The shares of active, inactive and inconclusive entries below differ from those in the screen. Rule as the data show it: inconclusive = inhibition above about 29% without an active follow-up result; inactive = below that.

What follows are compounds tested against Genome polyprotein (Dengue virus type 2 (strain 16681-PDK53)) (UniProt P29991) (assay: flavivirus cap methylation enzyme inhibition – biochemical, confirmation dose response, primary screen (AID 588689)). Conditions: Dengue-2 NS5 methyltransferase capping enzyme assay, at 25 µM, active compounds read high.

Row | SMILES | inhibition
1 | CCOc1ccc(-n2c(O)c(C=Nc3ccc(N(CC)CC)cc3)c(=O)[nH]c2=O)cc1 | inconclusive: 77%
2 | O=C(/C=C/c1ccc2c(c1)OCO2)c1c(O)n(CCC2=CCCCC2)c(=O)[nH]c1=O | inconclusive: 87.6%
3 | COC(=O)Cn1cc(/C=C2\C(=O)NC(=O)N(c3ccccc3)C2=O)c2ccccc21 | inconclusive: 140%
4 | CCN(CC)c1ccc(N=Cc2c(O)n(Cc3ccccc3)c(=O)[nH]c2=O)cc1 | inconclusive: 80.4% and inconclusive: 82%
5 | COc1ccc(/C=C/C(=O)c2c(O)n(CCC3=CCCCC3)c(=O)[nH]c2=O)cc1OC | inconclusive: 136%
6 | CN1Cc2c(c(C#N)c(N)n(C)c2=S)CC1(C)C | inconclusive: 91.4%
7 | Cc1cc(/C=C2\C(=O)NC(=O)N(c3ccc(Cl)cc3)C2=O)c(C)n1C | inconclusive: 41.6%
8 | CN1C(=O)C(=Cc2cn(CC#N)c3ccccc23)C(=O)N(C)C1=O | inconclusive: 43%
9 | COCCNC(=O)Cn1cc(C=C2C(=O)NC(=O)NC2=O)c2ccccc21 | inconclusive: 138%
10 | Cc1ccc(C)c(Cn2c(C(=O)O)c(C=O)c3ccccc32)c1 | inconclusive: 33.4%
11 | O=c1[nH]c(=O)n(Cc2ccccc2)c(O)c1/C=C1\C=Nc2ccccc21 | inconclusive: 100%
12 | CN1C[C@H](CO)C=C2c3cccc4[nH]cc(c34)C[C@H]21 | inconclusive: 66.6%
13 | CCOc1cc(/C=C2/C(=O)NC(=O)N(c3ccc(CC)cc3)C2=O)ccc1OC(=O)c1cccs1 | inconclusive: 30.4%
14 | COc1cc(C=C2C(=O)NC(=O)NC2=O)ccc1OCc1ccc([N+](=O)[O-])cc1 | inconclusive: 44.2%
15 | Cc1cc(/C=C2\C(=O)NC(=O)N(c3ccc(Br)cc3)C2=O)c(C)n1C | inconclusive: 29%
16 | O=[N+]([O-])c1ccc(N(CCO)CCO)c2c1no[n+]2[O-] | inconclusive: 34.3%
17 | Cn1cc(/C=C2\C(=O)NC(=O)N(c3ccccc3)C2=O)c2ccccc21 | inconclusive: 133%
18 | CCN1/C(=C\C=C\C2=[N+](CC)c3ccccc3C2(C)C)C(C)(C)c2ccccc21 | inconclusive: 168%
19 | O=C(O)Cn1cc(/C=C2\C(=O)NC(=O)N(c3ccc(Br)cc3)C2=O)c2ccccc21 | inconclusive: 75%
20 | NNC(N)=O | inconclusive: 69.8%
21 | Cc1cc(C)cc(N2C(=O)NC(=O)/C(=C\c3cc(C)n(C)c3C)C2=O)c1 | inconclusive: 49.2%
22 | O=C1NC(=O)N(c2ccccc2F)C(=O)/C1=C/c1ccc(Sc2nc3ccccc3[nH]2)o1 | inconclusive: 46.1%

Row | SMILES | inhibition
23 | CCN1C(=O)NC(=O)/C(=C\c2cn(CC(=O)N3CCCC3)c3ccccc23)C1=O | inconclusive: 166%
24 | CCN1/C(=C/C=C/C2=[N+](CC)c3ccccc3C2(C)C)C(C)(C)c2ccccc21 | inconclusive: 72%
25 | CCN(CC)c1ccc(/C=C/[N+](=O)[O-])cc1 | inconclusive: 152%
26 | CCOc1ccc(-n2c(O)c(/C=C3\C=Nc4ccccc43)c(=O)[nH]c2=O)cc1 | inconclusive: 107%
27 | COc1ccc2c3c([nH]c2c1)C(C)NCC3 (stereo not given) | inconclusive: 79.1%
28 | Cc1ccc(-n2c(O)c(C=NCC3CCCO3)c(=O)[nH]c2=O)c(C)c1 (stereo not given) | inconclusive: 45.9%
29 | Cn1cccc1/C=C1\C(=O)NC(=O)N(CCC2=CCCCC2)C1=O | inconclusive: 141%
30 | CCN1C(=O)NC(=O)/C(=C\c2cn(CC(=O)N3CCCCC3)c3ccccc23)C1=O | inconclusive: 153%
31 | Cc1cc(C)cc(N2C(=O)NC(=O)/C(=C\c3cccn3-c3ccccc3)C2=O)c1 | inconclusive: 29.1%
32 | CCNc1nc(NC(C)(C)C)nc(SC)n1 | inconclusive: 153%
33 | Cc1cc(C)cc(N2C(=O)NC(=O)/C(=C\c3cccn3-c3ccc(Cl)cc3)C2=O)c1 | inconclusive: 40.2%
34 | CCCCC(=O)N/N=C/c1c(O)n(CC)c(=S)n(CC)c1=O | inconclusive: 182%
35 | O=C(c1ccc2nc(-c3ccco3)c(-c3ccco3)nc2c1)N1CCC2(CC1)OCCO2 | inconclusive: 42.7%
36 | O=C1NC(=O)N(c2ccc(Cl)cc2)C(=O)/C1=C\c1ccc(Sc2nc3ccccc3[nH]2)o1 | inconclusive: 54.6%
37 | COCCNC(=O)Cn1cc(/C=C2\C(=O)NC(=O)N(c3ccccc3F)C2=O)c2ccccc21 | inconclusive: 140%
38 | CN1CCN(c2ccc([N+](=O)[O-])c3no[n+]([O-])c23)CC1 | inconclusive: 170%
39 | COc1ccc(-n2c(O)c(/C=C3\C=Nc4ccc(Br)cc43)c(=O)[nH]c2=O)cc1 | inconclusive: 171%
40 | CN1CCN(c2ccc(/C=C3\C(=O)NC(=S)N(c4cccc(Br)c4)C3=O)o2)CC1 | inconclusive: 145%
41 | O=C(O)Cn1cc(/C=C2\C(=O)NC(=O)N(c3ccc(Cl)cc3)C2=O)c2ccccc21 | inconclusive: 44.1%
42 | CCCCc1ccc(C(=O)O)nc1 | inconclusive: 153%
43 | O=c1[nH]c(=O)n(-c2ccc(F)cc2)c(O)c1C=Nc1ccccc1N1CCCC1 | inconclusive: 52.9%
44 | COc1ccc(P2(=O)Nc3ccccc3N2)cc1 | inconclusive: 63.4%

Row | SMILES | inhibition
45 | C=C1C(=O)O[C@@H]2C[C@@H](C)[C@@H]3C=CC(=O)[C@@]3(C)[C@@H](O)[C@H]12 | inconclusive: 78.9%
46 | C[C@H]1CCC/C=C/[C@@H]2C[C@H](O)C[C@H]2[C@H](O)/C=C/C(=O)O1 | inconclusive: 153%
47 | O=C(O)c1cccc2c1NC(c1cccc([N+](=O)[O-])c1)C1CC(Sc3ccccc3[N+](=O)[O-])C(Cl)C21 (stereo not given) | inconclusive: 49.7%
48 | Cc1cc(C=C2C(=O)NC(=O)NC2=O)c(C)n1-c1cccnc1 | inconclusive: 61.9%
49 | Cc1ccc(N2C(=O)/C(=C/c3ccc(CN(CCC#N)S(C)(=O)=O)o3)C(=O)NC2=S)cc1 | inconclusive: 33.4%
50 | CCOC(=O)c1cc(CC)sc1/N=C/C1C(=O)NC(=S)NC1=O | inconclusive: 44.2%
51 | CC(C)n1c(O)c(C2c3cc(Cl)ccc3Oc3[nH]c(=O)n(C(C)C)c(=O)c32)c(=O)[nH]c1=O (stereo not given) | inconclusive: 42.3%
52 | Nc1ccc2nonc2c1[N+](=O)[O-] | inconclusive: 160%
53 | CCOc1cc(C=C2C(=O)NC(=O)NC2=O)ccc1OS(=O)(=O)c1ccccc1 | inconclusive: 53.4%
54 | CC(=O)C1(O)CCC2C3CCC4=C(Cl)C(=O)CCC4(C)C3CCC21C (stereo not given) | inconclusive: 83%
55 | O=C1NC(=O)N(Cc2ccco2)C(=O)/C1=C/c1ccc(-c2cccc([N+](=O)[O-])c2)o1 | inconclusive: 74.5%
56 | CC1Oc2cc3c(-c4c(O)cc(O)c5c(O)c6c(cc45)OC(C)C(C)C6=O)c(O)cc(O)c3c(O)c2C(=O)C1C (stereo not given) | inconclusive: 73.4%
57 | N#CC(C#N)=Cc1ccc(-c2ccccc2F)o1 | inconclusive: 39.9%
58 | CCC(C)c1ccc(N2C(=O)NC(=O)/C(=C/c3cccn3CCOc3ccc(C)cc3)C2=O)cc1 (stereo not given) | inconclusive: 95%
59 | CCOC(=O)c1ccc(N=Cc2c(O)n(-c3ccc(OC)cc3)c(=S)[nH]c2=O)cc1 | inconclusive: 35.4%
60 | COc1ccc(N2C(=O)NC(=O)/C(=C\c3cn(C)c4ccccc34)C2=O)cc1 | inconclusive: 171%
61 | COc1cccc2c1C(=O)c1c(O)c3c(c(O)c1C2=O)CC(O)(C(C)=NO)CC3OC1CC(N)C(O)C(C)O1 (stereo not given) | inconclusive: 41.8%
62 | CC[C@H](C)/C=C(C)/C=C/C1=CC2=C(Cl)C(=O)[C@@](C)(OC(C)=O)C(=O)C2=CO1 | inconclusive: 57%
63 | CC1=C[C@@H]2c3cccc4[nH]cc(c34)C[C@H]2N(C)C1 | inconclusive: 72.4%
64 | C=C1[C@H]2CC[C@H]3[C@]4(C)C[C@H](O[C@H]5O[C@H](CO)[C@@H](OS(=O)(=O)O)[C@H](OS(=O)(=O)O)[C@H]5OC(=O)CC(C)C)C[C@@H](C(=O)O)[C@H]4CC[C@]3(C2)[C@H]1O | inconclusive: 60.8%
65 | Nc1ccc2ccc3cccc[n+]3c2c1 | inconclusive: 70.6%
